# From the supplement of paper PMC8728848
# The other results are listed elsewhere or left out.
# B1: Epa3to1 (Candida glabrata) (protein)
# chain: MGSSHHHHHHSSGLVPRGSHMKRELSSQNPFGYPIGCSPQDVAIIPGLTMELYSYPIVSGTPPNCYDASYVDPEYPRTGYLKRKMVGKSTGVTGNLNYKYSVEKACMVKYGNLPAGYNYNEPLTVSNFTMILYGYFKAQTTGLHTFFVNADDLLYINFGAGNAFDCCKREDSKTKLGEYVAYDIWHVDSSKNKVSLFLEKDLYYPIRMFFNNREYDSSLDLSFSVNGATDQISDFSGYLYSVPDQPDTCPAHIGYDTTCR
# Legend:
# Assay in all cases: glycan array binding signal (z-score within array); higher = stronger binding
# Conditions in all cases: glycan notation: IUPAC condensed, linker removed
# [1] = target: GalNAc(b1-3)Gal
# How it was run: (§1)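 Glycan array binding is given as a within-array Z-score, which can be read as non-binding when negative. The arrays, 3228 of them, came from the Consortium for Functional Glycomics database and were retained only where the protein sequence was available. Z-scores were averaged across arrays of the same protein sequence at different concentrations or buffers and across linkers.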
# [2] = target: GalNAc(b1-3)Gal(a1-4)Gal(b1-4)GlcNAc
# How it was run: as §1
# [3] = target: GalNAc(b1-3)Gal(a1-4)Gal(b1-4)GlcNAc(b1-3)Gal(b1-4)Glc
# How it was run: as §1
# [4] = target: GalNAc(b1-3)Gal(a1-6)Gal(b1-4)Glc
# How it was run: as §1
# [5] = target: GalNAc(b1-3)GalNAc
# How it was run: as §1
# [6] = target: GalNAc(b1-3)GlcNAc
# How it was run: as §1
# [7] = target: GalNAc(b1-4)Gal(b1-4)Glc
# How it was run: as §1
# [8] = target: GalNAc(b1-4)GlcNAc
# How it was run: as §1
# [9] = target: GalNAc(b1-4)GlcNAc(b1-2)Man
# How it was run: as §1
# [10] = target: GalNAc(b1-4)GlcNAc(b1-2)Man(a1-3)[GalNAc(b1-4)GlcNAc(b1-2)Man(a1-6)]Man(b1-4)GlcNAc(b1-4)GlcNAc
# How it was run: as §1
# [11] = target: GalNAc(b1-4)GlcNAc(b1-3)GalNAc(b1-4)GlcNAc
# How it was run: as §1
# [12] = target: GalNAc(b1-4)GlcNAc6S
# How it was run: as §1
# [13] = target: GalNAc(b1-6)GalNAc
# How it was run: as §1
# [14] = target: GalNAc3S(b1-4)GlcNAc
# How it was run: as §1
# [15] = target: GalNAc3S(b1-4)GlcNAc3S
# How it was run: as §1
# [16] = target: GalNAc3S(b1-4)[Fuc(a1-3)]GlcNAc
# How it was run: as §1
# [17] = target: GalNAc4S6S(b1-4)GlcNAc
# How it was run: as §1
# [18] = target: GalNAc6S(b1-4)GlcNAc
# How it was run: as §1
# [19] = target: Glc(a1-4)Glc
# How it was run: as §1
# [20] = target: Glc(a1-4)Glc(a1-4)Glc(a1-4)Glc
# How it was run: as §1
# [21] = target: Glc(a1-6)Glc(a1-6)Glc
# How it was run: as §1
# [22] = target: Glc(a1-6)Glc(a1-6)Glc(a1-6)Glc
# How it was run: as §1
# [23] = target: Glc(b1-4)Glc
# How it was run: as §1
# [24] = target: Glc(b1-6)Glc
# How it was run: as §1
# [25] = target: GlcA(b1-3)Gal
# How it was run: as §1
# [26] = target: GlcA(b1-3)GlcNAc
# How it was run: as §1
# [27] = target: GlcA(b1-6)Gal
# How it was run: as §1
# [28] = target: GlcA3S(b1-3)Gal(b1-4)GlcNAc(b1-2)Man
# How it was run: as §1
# [29] = target: GlcA3S(b1-3)Gal(b1-4)GlcNAc(b1-3)Gal(b1-4)Glc
# How it was run: as §1
# [30] = target: GlcNAc(a1-3)Gal(b1-4)GlcNAc
# How it was run: as §1
# [31] = target: GlcNAc(a1-4)Gal(b1-3)GlcNAc
# How it was run: as §1
# [32] = target: GlcNAc(a1-4)Gal(b1-4)GalNAc
# How it was run: as §1
# [33] = target: GlcNAc(a1-4)Gal(b1-4)GlcNAc
# How it was run: as §1
# [34] = target: GlcNAc(a1-4)Gal(b1-4)GlcNAc(b1-3)Gal(b1-4)Glc
# How it was run: as §1
# [35] = target: GlcNAc(a1-4)Gal(b1-4)GlcNAc(b1-3)Gal(b1-4)GlcNAc
# How it was run: as §1
# [36] = target: GlcNAc(a1-4)Gal(b1-4)GlcNAc(b1-3)Gal(b1-4)GlcNAc(b1-3)Gal(b1-4)GlcNAc
# How it was run: as §1
# [37] = target: GlcNAc(a1-4)Gal(b1-4)GlcNAc(b1-3)Gal(b1-4)[Fuc(a1-3)]GlcNAc(b1-3)Gal(b1-4)[Fuc(a1-3)]GlcNAc
# How it was run: as §1
# [38] = target: GlcNAc(a1-6)Gal(b1-4)GlcNAc
# How it was run: as §1
binder,measurement,setting,value
B1,glycan array binding signal (z-score),[1],0.105
same,glycan array binding signal (z-score),[2],-0.495
same,glycan array binding signal (z-score),[3],0.126
same,glycan array binding signal (z-score),[4],-0.584
same,glycan array binding signal (z-score),[5],-0.174
same,glycan array binding signal (z-score),[6],-0.332
same,glycan array binding signal (z-score),[7],0.247
same,glycan array binding signal (z-score),[8],-0.393
same,glycan array binding signal (z-score),[9],-0.988
same,glycan array binding signal (z-score),[10],0.011
same,glycan array binding signal (z-score),[11],-0.26
same,glycan array binding signal (z-score),[12],-0.256
same,glycan array binding signal (z-score),[13],-0.4
same,glycan array binding signal (z-score),[14],-0.299
same,glycan array binding signal (z-score),[15],0.281
same,glycan array binding signal (z-score),[16],-0.269
same,glycan array binding signal (z-score),[17],-0.139
same,glycan array binding signal (z-score),[18],-0.544
same,glycan array binding signal (z-score),[19],-0.015
same,glycan array binding signal (z-score),[20],-0.029
same,glycan array binding signal (z-score),[21],-0.217
same,glycan array binding signal (z-score),[22],-0.221
same,glycan array binding signal (z-score),[23],-0.61
same,glycan array binding signal (z-score),[24],-0.415
same,glycan array binding signal (z-score),[25],-0.01
same,glycan array binding signal (z-score),[26],-0.275
same,glycan array binding signal (z-score),[27],0.35
same,glycan array binding signal (z-score),[28],0.286
same,glycan array binding signal (z-score),[29],-0.437
same,glycan array binding signal (z-score),[30],-0.637
same,glycan array binding signal (z-score),[31],-0.807
same,glycan array binding signal (z-score),[32],-0.908
same,glycan array binding signal (z-score),[33],-0.345
same,glycan array binding signal (z-score),[34],-0.208
same,glycan array binding signal (z-score),[35],-0.188
same,glycan array binding signal (z-score),[36],-0.389
same,glycan array binding signal (z-score),[37],-0.037
same,glycan array binding signal (z-score),[38],0.388
